Experimental data reported in publication PMC7297730.
These are yes or no findings as the source states them, for the method shown. Some entries that bind do so weakly or less than the wild type.

Biological target: T1, Nse5-Nse6 (Gal4BD-Nse5 with non-hybrid Nse6) (S. pombe) (UniProt O94668+O13688)
T1 sequence 1: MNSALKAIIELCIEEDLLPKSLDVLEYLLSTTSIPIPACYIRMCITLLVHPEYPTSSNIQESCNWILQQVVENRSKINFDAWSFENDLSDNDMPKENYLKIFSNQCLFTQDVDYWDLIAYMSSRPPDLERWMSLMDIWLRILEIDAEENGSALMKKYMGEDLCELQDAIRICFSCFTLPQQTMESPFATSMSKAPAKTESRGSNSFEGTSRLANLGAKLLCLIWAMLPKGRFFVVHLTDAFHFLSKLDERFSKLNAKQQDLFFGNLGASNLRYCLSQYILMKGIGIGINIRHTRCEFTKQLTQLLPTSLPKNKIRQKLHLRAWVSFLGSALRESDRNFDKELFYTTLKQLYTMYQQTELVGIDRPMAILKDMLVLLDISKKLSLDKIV
T1 sequence 2: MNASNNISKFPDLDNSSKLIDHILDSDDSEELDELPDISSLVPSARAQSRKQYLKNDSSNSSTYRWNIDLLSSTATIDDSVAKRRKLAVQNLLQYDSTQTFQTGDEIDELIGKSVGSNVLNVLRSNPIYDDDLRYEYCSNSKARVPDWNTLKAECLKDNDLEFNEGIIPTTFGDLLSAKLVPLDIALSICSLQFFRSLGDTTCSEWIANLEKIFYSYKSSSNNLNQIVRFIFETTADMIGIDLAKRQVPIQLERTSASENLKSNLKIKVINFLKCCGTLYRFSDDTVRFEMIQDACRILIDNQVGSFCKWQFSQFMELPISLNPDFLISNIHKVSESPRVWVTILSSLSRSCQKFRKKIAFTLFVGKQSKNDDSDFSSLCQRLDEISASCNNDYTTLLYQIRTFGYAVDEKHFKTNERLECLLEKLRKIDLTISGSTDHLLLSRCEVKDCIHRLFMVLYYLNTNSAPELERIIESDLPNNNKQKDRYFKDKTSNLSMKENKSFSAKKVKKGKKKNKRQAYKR
Experiment: two-hybrid; 3Y2H: Gal4AD-SMC6 + Gal4BD-Nse5 + non-hybrid Nse6 (p416ADH1-Nse6); -L,T,U,H plates with 3 mM 3-aminotriazole

B1: Gal4AD-SMC6 L965A (protein, UniProt P53692 1-1140)
chain: MTTELTNVSLEEAITEKTSENRRKRDSDVLQTEEVDLSNVKRIRASRNQDNRPERQSRLQRSSSLIEQVRGNEDGENDVLNQTRETNSNFDNRVGVIECIHLVNFMCHDSLKINFGPRINFVIGHNGSGKSAILTGLTICLGAKASNTNRAPNMKSLVKQGKNYARISVTISNRGFEAYQPEIYGKSITIERTIRREGSSEYRLRSFNGTVISTKRDELDNICDHMGLQIDNPMNILTQDTARQFLGNSSPKEKYQLFMKGIQLKQLEENYSLIEQSLINTKNVLGNKKTGVSYLAKKEEEYKLLWEQSRETENLHNLLEQKKGEMVWAQVVEVEKELLLAEKEFQHAEVKLSEAKENLESIVTNQSDIDGKISSKEEVIGRAKGETDTTKSKFEDIVKTFDGYRSEMNDVDIQKRDIQNSINAAKSCLDVYREQLNTERARENNLGGSQIEKRANESNNLQREIADLSEQIVELESKRNDLHSALLEMGGNLTSLLTKKDSIANKISDQSEHLKVLEDVQRDKVSAFGKNMPQLLKLITRETRFQHPPKGPMGKYMTVKEQKWHLIIERILGNVINGFIVRSHHDQLILKELMRQSNCHATVVVGKYDPFDYSSGEPDSQYPTVLKIIKFDDDEVLHTLINHLGIEKMLLIEDRREAEAYMKRGIANVTQCYALDPRNRGYGFRIVSTQRSSGISKVTPWNRPPRIGFSSSTSIEAEKKILDDLKKQYNFASNQLNEAKIEQAKFKRDEQLLVEKIEGIKKRILLKRREVNSLESQELSVLDTEKIQTLERRISETEKELESYAGQLQDAKNEEHRIRDNQRPVIEEIRIYREKIQTETQRLSSLQTELSRLRDEKRNSEVDIERHRQTVESCTNILREKEAKKVQCAQVVADYTAKANTRCERVPVQLSPAELDNEIERLQMQIAEWRNRTGVSVEQAAEDYLNAKEKHDQAKVLVARLTQLAQALEETLRRRNEMWTKFRKLITLRTKELFELYLSQRNFTGKLVIKHQEEFLEPRVYPANRNLATAHNRHEKSKVSVQGLSGGEKSFATICMLLSIWEAMSCPLRCLDEFDVFMDAVNRLVSIKMMVDSAKDSSDKQFIFITPQDMGQIGLDKDVVVFRLSDPVVSSSALPPSTAP
For B1, the binding was “binds”.

B2: Gal4AD-SMC6 L972A (protein, UniProt P53692 1-1140)
chain: MTTELTNVSLEEAITEKTSENRRKRDSDVLQTEEVDLSNVKRIRASRNQDNRPERQSRLQRSSSLIEQVRGNEDGENDVLNQTRETNSNFDNRVGVIECIHLVNFMCHDSLKINFGPRINFVIGHNGSGKSAILTGLTICLGAKASNTNRAPNMKSLVKQGKNYARISVTISNRGFEAYQPEIYGKSITIERTIRREGSSEYRLRSFNGTVISTKRDELDNICDHMGLQIDNPMNILTQDTARQFLGNSSPKEKYQLFMKGIQLKQLEENYSLIEQSLINTKNVLGNKKTGVSYLAKKEEEYKLLWEQSRETENLHNLLEQKKGEMVWAQVVEVEKELLLAEKEFQHAEVKLSEAKENLESIVTNQSDIDGKISSKEEVIGRAKGETDTTKSKFEDIVKTFDGYRSEMNDVDIQKRDIQNSINAAKSCLDVYREQLNTERARENNLGGSQIEKRANESNNLQREIADLSEQIVELESKRNDLHSALLEMGGNLTSLLTKKDSIANKISDQSEHLKVLEDVQRDKVSAFGKNMPQLLKLITRETRFQHPPKGPMGKYMTVKEQKWHLIIERILGNVINGFIVRSHHDQLILKELMRQSNCHATVVVGKYDPFDYSSGEPDSQYPTVLKIIKFDDDEVLHTLINHLGIEKMLLIEDRREAEAYMKRGIANVTQCYALDPRNRGYGFRIVSTQRSSGISKVTPWNRPPRIGFSSSTSIEAEKKILDDLKKQYNFASNQLNEAKIEQAKFKRDEQLLVEKIEGIKKRILLKRREVNSLESQELSVLDTEKIQTLERRISETEKELESYAGQLQDAKNEEHRIRDNQRPVIEEIRIYREKIQTETQRLSSLQTELSRLRDEKRNSEVDIERHRQTVESCTNILREKEAKKVQCAQVVADYTAKANTRCERVPVQLSPAELDNEIERLQMQIAEWRNRTGVSVEQAAEDYLNAKEKHDQAKVLVARLTQLLQALEETARRRNEMWTKFRKLITLRTKELFELYLSQRNFTGKLVIKHQEEFLEPRVYPANRNLATAHNRHEKSKVSVQGLSGGEKSFATICMLLSIWEAMSCPLRCLDEFDVFMDAVNRLVSIKMMVDSAKDSSDKQFIFITPQDMGQIGLDKDVVVFRLSDPVVSSSALPPSTAP
For B2, the binding was “binds”.
